# PubChem BioAssay AID602310 (National Center for Advancing Translational Sciences (NCATS), 2012)
# The whole screen tested about 410,000 compounds, of which about 310 (0.076%) were called active. The shares of active, inactive and inconclusive entries below differ from those in the screen. Calls follow the shape of the dose curve; as a rule, active = well fitted curve in the direction sought with a large enough effect; inconclusive = small, poorly fitted or top-dose-only effect; inactive = flat fitted curve, though single readings scatter. Potencies of inconclusive entries are doubtful fits and often do not repeat.
# Biological target: DNA dC->dU-editing enzyme APOBEC-3G (Homo sapiens) (UniProt Q9HC16)
# Assay: qHTS for Inhibitors of Vif-A3G Interactions: qHTS; also: nearly all actives have a fitted effect of over 60% in size
# Conditions: HeLa A3G-eYFP + Vif (tagged APOBEC3G with the HIV-1 protein that degrades it), YFP fluorescence, overnight; series mostly up to 46.1 µM
# Outline: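 Read-out is eYFP fluorescence (Ex 488/Em 500-530) from Vif-expressing HeLa A3G-eYFP cells; more signal means A3G escaped Vif-mediated degradation. Cells plated overnight, compound pinned in, incubated overnight at 37 deg C.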
# Potency is read from the fitted curve at half-maximal effect; tags tell the direction and shape of the fitted curve.
# Sequence of UniProt Q9HC16 (Q9HC16 whole entry, looked up): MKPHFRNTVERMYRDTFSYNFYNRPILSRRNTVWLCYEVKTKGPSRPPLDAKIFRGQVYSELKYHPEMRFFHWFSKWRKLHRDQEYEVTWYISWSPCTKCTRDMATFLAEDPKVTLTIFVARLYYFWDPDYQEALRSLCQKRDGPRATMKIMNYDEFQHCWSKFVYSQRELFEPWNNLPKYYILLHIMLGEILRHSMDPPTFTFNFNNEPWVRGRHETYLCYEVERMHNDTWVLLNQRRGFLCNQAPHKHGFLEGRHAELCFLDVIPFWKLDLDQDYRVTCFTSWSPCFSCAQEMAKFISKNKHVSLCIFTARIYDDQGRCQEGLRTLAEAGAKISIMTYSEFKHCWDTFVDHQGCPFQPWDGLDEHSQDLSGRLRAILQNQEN
row,SMILES,Potency
1,CSc1nc(-c2ccccc2)cn1-c1ccc(NC(C)=O)cc1,"inconclusive: 25.1 µM [inhibitor, single point]"
2,COc1ccc(CNC(=O)c2cc3cc(OC)ccc3oc2=O)cc1,"inconclusive: 6.31 µM [inhibitor, single point]"
3,CCC(c1nnnn1CC1CCCO1)N(CCCO)Cc1cc2cccc(C)c2[nH]c1=O (stereo not drawn),inactive
4,CCC(=O)Nc1ccc(C(=O)Cn2ncc(Cl)c(Cl)c2=O)cc1,"inconclusive: 25.1 µM [inhibitor, single point]"
5,O=C(Cn1cnc2c(NCc3ccccc3)ncnc21)NCc1ccccc1,"inconclusive: 3.55 µM [inhibitor, full curve, poor fit]"
6,CC(c1ccco1)N(C(=O)c1ccccc1NS(=O)(=O)c1ccc(Cl)c([N+](=O)[O-])c1)c1ccccn1 (stereo not drawn),"inconclusive: 35.5 µM [inhibitor, single point]"
7,O=C1C2CC=CCC2C(=O)N1Nc1ccccc1 (stereo not drawn),inactive
8,CCOc1ccc2c(c1)/C(=C(\C(Cl)=C(Cl)Cl)[N+](=O)[O-])N2,"inconclusive: 12.6 µM [inhibitor, single point]"
9,Cc1cccc(NS(=O)(=O)c2cc3c(cc2C)NC(=O)CO3)c1,inactive
10,O=C(Nc1ccccc1OC(=O)c1ccccc1)c1ccccc1,"inconclusive: 10 µM [inhibitor, partial curve, poor fit]"
11,CCCCCC[n+]1ccccc1/C=C/c1ccc(N(C)C)cc1,"inconclusive: 2.24 µM [inhibitor, partial curve, poor fit]"
12,COc1ccc(S(=O)(=O)NCCc2cn3nc(C)c(C)nc3n2)cc1F,inactive
13,CC(=O)Oc1cccc(N2C(=O)c3cccc4c([N+](=O)[O-])ccc(c34)C2=O)c1,"inconclusive: 10 µM [inhibitor, partial curve, poor fit]"
14,CCOc1ccc(N(CC(=O)Nc2ccccc2CC)S(=O)(=O)c2c(C)noc2C)cc1,"inconclusive: 3.55 µM [inhibitor, partial curve, poor fit]"
15,COc1ccccc1NNC(=O)c1cc(C(C)(C)C)nn1Cc1ccccc1,inactive
16,C=CCOc1ccc(C2C(C#N)=C(N)N(Nc3ccccc3)C3=C2C(=O)CCC3)cc1OC (stereo not drawn),"inconclusive: 15.8 µM [inhibitor, single point]"
17,CC1CCN(S(=O)(=O)c2ccc(NC(=O)Cn3nnc(-c4ccccc4F)n3)cc2)CC1,"inconclusive: 25.1 µM [inhibitor, single point]"
18,COc1ccc(OC(C)C(=O)N2CCc3ccccc3C2)cc1 (stereo not drawn),"inconclusive: 28.2 µM [inhibitor, single point]"
19,Cc1cc(Nc2nc(Cl)c(Cl)cc2Cl)n(-c2ccccc2)n1,"inconclusive: 7.08 µM [inhibitor, partial curve, poor fit]"
20,COc1ccc(C2Nc3cccc4cccc(c34)N2)cc1Br,inactive
21,Cc1[nH]c2ccccc2c1C1=CC(=O)C=CC1=O,"inconclusive: 35.5 µM [inhibitor, single point]"
22,O=C1C=C(Nc2cccc(Cl)c2)CC(c2ccco2)C1 (stereo not drawn),"inconclusive: 14.1 µM [inhibitor, single point]"
23,CC(=O)NS(=O)(=O)c1ccc(NC(=O)c2cc3c(=O)n4ccccc4nc3s2)cc1,inactive

row,SMILES,Potency
1,O=C(Cn1ncc(Cl)c(Cl)c1=O)N1CCN(S(=O)(=O)c2ccc3ccccc3c2)CC1,"inconclusive: 11.2 µM [inhibitor, partial curve, poor fit]"
2,Cc1cc(C)cc(NS(=O)(=O)c2ccc3[nH]cc(C(=O)NC4CCCCC4)c(=O)c3c2)c1,inactive
3,Cc1ccc(NC(=O)Cn2c(O)c(N=NC(N)=O)c3ccccc32)cc1,"inconclusive: 15.8 µM [inhibitor, single point]"
4,CCn1cc2c(n1)-c1c(oc(C(=O)Nc3cccc(C)c3C)c1C)CC2,"inconclusive: 25.1 µM [inhibitor, partial curve, poor fit]"
5,COc1ccc(C(=O)Oc2cccc3cccnc23)cc1[N+](=O)[O-],"inconclusive: 35.5 µM [inhibitor, single point]"
6,CC(c1ccc2ccccc2c1)c1ccccc1C(=O)O (stereo not drawn),inactive
7,C=CCN1C(=O)c2cccc3c(N4CCCCC4)ccc(c23)C1=O,"inconclusive: 5.62 µM [inhibitor, full curve, poor fit]"
8,O=C(/C=C/c1ccco1)NC(=S)Nc1cccc([N+](=O)[O-])c1,"inconclusive: 11.2 µM [inhibitor, partial curve]"
9,CCOC(=O)c1ccsc1NC(=O)CCS(=O)(=O)c1ccccc1,inactive
10,Cc1ccc2c(c1)c(/C=C/c1cc[n+](C)cc1)c(C)n2C,"inconclusive: 0.891 µM [inhibitor, full curve, poor fit]"
11,O=C(CSc1nnnn1-c1cccc2c1CCCC2)N1CCOCC1,inactive
12,Cc1cnc(NC(=O)CC(C)c2ccccc2)s1 (stereo not drawn),"inconclusive: 7.08 µM [inhibitor, partial curve, poor fit]"
13,Cc1ccc(C2=Nc3ccccc3N=C(c3ccco3)C2)c(O)c1,inactive
14,Cc1ccc(CNC(=O)c2ccc(Cn3c(=O)c4ccccc4n(CC(=O)Nc4ccc(C)cc4)c3=O)cc2)cc1,inactive
15,CCOc1[nH]n(-c2ccccc2)c(=O)c1C=Nc1ccccc1,"inconclusive: 7.08 µM [inhibitor, partial curve, poor fit]"
16,N#CC1=C(N)C2=CCCC[C@H]2[C@H](c2ccc(Br)cc2)C1(C#N)C#N,"inconclusive: 15.8 µM [inhibitor, single point]"
17,Cc1nn(Cc2ccccc2)c2c1C(c1ccc(Cl)cc1)C(C#N)=C(N)O2 (stereo not drawn),"inconclusive: 28.2 µM [inhibitor, single point]"
18,CCOC(=O)C1(Cc2ccccc2)CCN(Cc2csc(C(C)=O)c2)CC1,inactive
19,Oc1ccc(C2=NNC(=NCc3ccc4c(c3)OCO4)SC2)c(O)c1,"inconclusive: 3.55 µM [inhibitor, full curve]"
20,COc1ccc2cc(C(=O)NCc3ccc4c(c3)CCN4C(=O)c3ccc(F)cc3)[nH]c2c1,inactive
21,N=C1/C(=C\c2coc3ccccc3c2=O)C(=O)N=C2SC=CN12,"inconclusive: 17.8 µM [inhibitor, single point]"
22,COc1cc(C(=O)N/N=C/c2ccsc2C)cc(OC)c1OC,"inconclusive: 0.562 µM [inhibitor, full curve, poor fit]"
23,CCc1ccc(OCCCCCn2ccnc2)cc1,inactive

row,SMILES,Potency
1,C[n+]1cc(C(=O)N2CCCCC2)ccc1/C=C/c1c[nH]c2ccccc12,active: 11.2 µM
2,CCn1c2ccccc2c2cc(NS(=O)(=O)c3ccccc3C)ccc21,"inconclusive: 35.5 µM [inhibitor, single point]"
3,Cc1cc[n+](C2CCCCC2)cc1,"inconclusive: 17.8 µM [inhibitor, partial curve, poor fit]"
4,COc1ccc(C2c3ccc(O)cc3Oc3ncn4nc(-c5ccco5)nc4c32)cc1OC (stereo not drawn),inactive
5,O=C(N=Nc1c(O)[nH]c2ccccc12)Nc1ccccc1,inactive
6,COc1ccc(OC)c(C2=NOC(C(=O)NCc3cccs3)C2)c1 (stereo not drawn),"inconclusive: 11.2 µM [inhibitor, partial curve]"
7,COc1cc2c(cc1OC)C(c1ccc(Cl)cc1)N(c1cccc(C#N)c1)C(=O)C2 (stereo not drawn),inactive
8,COC/C=C/C1=CC2=CC(=O)C(C)(OC(=O)c3cnc4ccccc4n3)C(=O)C2=CN1C1CC1 (stereo not drawn),"inconclusive: 22.4 µM [inhibitor, single point]"
9,COc1cc(/C=C2\SC(=Nc3ccc(O)cc3)NC2=O)cc(OC)c1O,"inconclusive: 3.55 µM [inhibitor, single point]"
10,O=C(NCc1cccs1)C1CC(c2ccc(Cl)c(Cl)c2)=NO1 (stereo not drawn),"inconclusive: 15.8 µM [inhibitor, single point]"
11,COc1ccc(NC(=O)c2ccc3ccccc3c2OC)cc1,"inconclusive: 11.2 µM [inhibitor, partial curve, poor fit]"
12,O=[N+]([O-])CC(c1ccccc1)c1c[nH]c2ccccc12 (stereo not drawn),"inconclusive: 7.08 µM [inhibitor, partial curve, poor fit]"
13,O=C(C#Cc1ccccc1)Nc1ccccc1F,"inconclusive: 35.5 µM [inhibitor, single point]"
14,O=[N+]([O-])c1ccc(-c2nc(-c3cccs3)c(-c3cccs3)[nH]2)cc1,"inconclusive: 15.8 µM [inhibitor, single point]"
15,O=[N+]([O-])c1ccc(N/N=C/C=C/c2ccco2)cc1,"inconclusive: 12.6 µM [inhibitor, partial curve]"
16,Cc1ccccc1NCc1ccc(O)c2ncccc12,inactive
17,O=C(N/N=C/c1ccc([N+](=O)[O-])o1)c1cc2ccccc2o1,"inconclusive: 6.31 µM [inhibitor, full curve]"
18,Cc1ccc(-n2c(-c3ccc(Cl)cc3)n[nH]c2=S)c(C)c1,inactive
19,CCC(=O)N1CCN(c2ccc(NC(=O)c3ccc([N+](=O)[O-])o3)cc2)CC1,"inconclusive: 4.47 µM [inhibitor, partial curve, poor fit]"
20,CCCCCc1cc(O)c2c(C)cc(=O)oc2c1,inactive
21,CCC(C)Sc1ccc([C@@H]2[C@H]3C(=O)N(CC)C(=O)[C@H]3[C@]3(C(=O)OC)CCCCN23)cc1 (stereo partly drawn),"inconclusive: 25.1 µM [inhibitor, single point]"
22,CCOC(=O)/C(=C/C=C1\Sc2ccccc2N1CC)C(C)=O,"inconclusive: 3.16 µM [inhibitor, partial curve, poor fit]"
